# Reference: the supplement of paper PMC3334620
# In all, about 33,000 sequences were measured (“E-score (-0.5 to 0.5)”: median about -0.013, highest 2% from about 0.3 on). Some of the results follow.
# Target: T1, Msn1 (UniProt P22148)
# T1 sequence: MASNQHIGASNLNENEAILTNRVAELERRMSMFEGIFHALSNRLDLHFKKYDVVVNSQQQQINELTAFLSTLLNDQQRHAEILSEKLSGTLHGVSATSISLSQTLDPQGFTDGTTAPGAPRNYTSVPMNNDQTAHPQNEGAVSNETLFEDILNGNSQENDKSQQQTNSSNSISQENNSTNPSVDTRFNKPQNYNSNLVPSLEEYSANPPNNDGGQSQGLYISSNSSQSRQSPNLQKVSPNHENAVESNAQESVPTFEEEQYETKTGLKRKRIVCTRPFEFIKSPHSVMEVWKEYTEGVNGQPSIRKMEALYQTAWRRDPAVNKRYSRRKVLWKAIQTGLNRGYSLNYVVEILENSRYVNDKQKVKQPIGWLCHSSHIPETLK
# Experiment: PBM E-score (8-mer binding enrichment) (E-score (-0.5 to 0.5)); higher = stronger / more preferred TF binding; most listed sequences are background and not binding sites
# Conditions: protein concentration: 200 nM; construct: GST-full length
# Method in brief: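 For each ungapped eight-base word taken together with its reverse complement, the Universal PBM Analysis Suite assigned an E-score. Binding data came from GST-tagged yeast transcription factors, applied at about 100-200 nM, on universal all-10-mer Agilent arrays made double-stranded by primer extension. Fluorescent anti-GST marked bound protein, and scans were normalised with masliner.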
row,Sequence,PBM E-score
1,CATAGAAA,0.201
2,ATAACCAG,0.0452
3,ATCGCCAG,-0.0614
4,AATGAGAT,0.119
5,AAGCGTAG,-0.153
6,CCAAAGAC,0.242
7,ACACAAGT,0.221
8,TAAGTCCA,0.26
9,GACGCCCC,-0.306
10,CCAGATGC,-0.0269
11,ATTCTCTA,0.0164
12,ATATCAGA,0.16
13,TCCTCCGA,-0.071
14,GTAGATAA,0.0986
15,TCGCCGAA,0.099
16,CGTGTTTC,0.0244
17,TCGCTCCA,-0.031
18,GCACAACA,0.0085
19,AAGCTATG,-0.0916
20,GGTCGCTA,-0.0983
21,AGGACGCA,0.173
22,CCCCGCGG,-0.217

row,Sequence,PBM E-score
1,ACCACTGC,-0.19
2,AAGAGCAG,-0.176
3,GATCGTCA,-0.148
4,GGTTTATA,0.0948
5,ACTCGGAT,0.112
6,GACTTCAA,-0.0472
7,AGCCCGAA,0.0451
8,CAAGTCGA,0.0241
9,CGCACGAA,0.0398
10,AGAGAACT,-0.00154
11,CCGGTGTC,0.09
12,ACTTGGTG,-0.224
13,ACAGCGTG,0.0507
14,CACGTGAC,0.225
15,CAATTAGA,0.00628
16,GCTTTTGA,-0.0979
17,CATCATGG,-0.077
18,CTCTTCAC,-0.111
19,CCATCGGC,-0.137
20,AATAATCA,0.0492
21,AGCTCCAG,-0.0975
22,CATTTTAA,0.214

row,Sequence,PBM E-score
1,CCGCGATA,-0.0107
2,GCCGGTTA,-0.0801
3,GCACGAGA,-0.0704
4,AATCGCTC,-0.222
5,CCGGTAGA,-0.125
6,ACCTATAT,0.279
7,TACGACCA,-0.025
8,AGAGCACA,-0.147
9,AAGTTATG,0.2
10,ATCTACGA,-0.116
11,ACGTGAGT,-0.174
12,ACTGGGAA,-0.0174
13,GAAGTATC,-0.00239
14,CAACCAGG,-0.0341
15,ATTTAGCG,0.0228
16,ACCACAAC,0.0827
17,GACTGCTA,-0.183
18,CCGCCCAG,-0.21
19,ACTGCATA,0.171
20,CTCGGGCC,-0.0837
21,CAATGGAC,0.226
22,ACTTAACT,0.015

row,Sequence,PBM E-score
1,CTGGGCTC,-0.203
2,GAGCGAAA,0.139
3,CGAGTCCA,-0.108
4,CCCAGACC,-0.348
5,GTGAGCGA,-0.0614
6,AGGCTGAA,-0.023
7,AAGGGTGA,-0.11
8,CCGTCTCC,-0.113
9,CAGGAGCG,-0.0172
10,GACCGTGC,-0.219
11,ACTCGTAT,0.0597
12,AGAGACCC,0.00402
13,CACACTAA,0.0839
14,AAGTACGA,0.133
15,GGGACGGA,-0.287
16,CAGGCATA,-0.184
17,GATAGCAC,-0.209
18,GACTGCTC,-0.0933
19,GAAGCCGC,-0.0756
20,CGGAACAG,0.0524
21,TCCCACCA,-0.249
22,GAGTAATC,-0.128

row,Sequence,PBM E-score
1,GTAAATCA,0.125
2,AAAATGTT,0.138
3,GCTGGACC,0.00581
4,ATGTATCA,0.145
5,AGAATCAG,-0.0144
6,AGTGCTCC,-0.239
7,AACCGATT,0.104
8,CGAACCAC,-0.0171
9,AGCGTTTA,-0.0795
10,TGCCTAAA,0.0527
11,CAACGCTG,-0.106
12,CAGAGTAC,0.0155
13,ACGTCTTA,0.0725
14,CACGCATA,-4e-05
15,AGAATCTG,0.0164
16,GCTAAAAA,-0.0605
17,CCGCGGCC,-0.0313
18,TAACTAAA,0.0052
19,GACGGGCC,-0.195
20,CGCTGCCG,-0.0744
21,GCGCCGCA,-0.0142
22,ATTAGGTA,0.0699
